Source: the RNAGym collection of RNA variant scans (doi:10.7554/elife.90254)
Read counts are not given, so values of variants with three or more changes are uncertain.

B1: LINE1-full (parent)
chain: UACGUAGGUGGUUUUCCCCUGAUAGUGCUAAGGGGGCCUGGAAGUUUGGACUGGGCAGAGCUCAACACAGCGUGGCAAAGUGGCUGUGGCUAGACUGCCUCUCUGGAUUCCUCGUCACUCAGCAGGGCAUCUCUGAGAGAAAUGCC

Variants of: B1
Experiment: self-cleavage, relative activity (ratio to wild type); higher = more cleavage; in vitro, sequencing; the parent is a self-cleaving ribozyme

Variant	self-cleavage
U62C A65G A136G	0
A64U U96A A138G	0.02
A59U A92U A140C	0.66
A59G A79U A140G	0.03
A59G A77G A78G	0.09
A64G A107U A138G A141G	0.24
A59G U62A U85G U112C	0
A59G A129G A141G	0
A59G A65U U73C	0
A64G C71U U85C A129G	0.11
A64U U130C U134A	0.22
A64U U81C A92G	0.21
A59G A78G A94G	0.45
A64G U96C A117U	0.07
U62C U81A A136G	0.03
A64G A117U U134C	0.29
G60C G72A A129G	0.02
A59G C110A C113A	0.08
U62C U115C U130A G137A A141G	0
U62A C113U A117G	0.04
A64G C71U A79G	0.11
U62C A77U A79G	0.07
U62A U104A A121U A124G	0
U62C A69G A142G	0.11

Variant	self-cleavage
G60A A79G A141U	0
U62C A140G A142G	0.07
A64U U73C G80A	0.84
A59G U96A A124U U143C	0.02
A59G U109A U132A	0.08
A64G G75A A141G	0.16
C61U U91C G127A	0.02
U62C U91A A94G	0
G60A U104A U115A	0.02
A64U A65G C66U A78G A117G C123A A138G	0
G60A A64G A138G	0.06
U62C A69G U119C A141G U143C	0
U62A A64G U85C	0
A64G A107G U112A	0.56
A64G U104A A107G A138G A140G	0.12
A64G U115C A129G U132C	0
A64U C76U U100C	1.25
A64G A107G A129G	0
U62A A92U C116G	0.05
U62C A64G C66U	0.03
A59G U62A U96A U100C	0.27
C63U A79U U96C	0.1
U62A U73C A94G	0.22
A64G U85A U104C U119C A124U	0.37

Variant	self-cleavage
A64U A67G A77G U134A	0.26
U62A U132C A141G	0.02
U62C U102C U119C	0.17
A64G A65U U73A	0.01
U62C U108C A136G	0
U62A U108C U132C	0.02
A59U A79G C98U U132C	0.7
A59U A79U U87C A138G	0.09
U62C U87G U100C	0.2
A59G U73C U143C	1.53
U62C U73C A140G	0
A59G A92U U102A	0.11
G60A A65G A77U	0.03
U62C U81A A138U	0.01
U62C U73C A141G	0.04
C63U A69C A79G A138G	0.01
A59G U73A G83A U104C	0.12
U62C A78G U102A	0.12
U62C G86U A124U	0.03
A64U A124G C146U	0.25
A59G U96A A141C	0.08
U62C U85G U87A	0.14
A64G U73A G114A C133U	0.22
A64U U91A G144A	0.12

Variant	self-cleavage
C63U G75A A136G	0.28
A59G U132C A141U	0.35
A59G A69G U132A	0.12
A59G A79G U143C	0
A59G A67G G82U	0.05
U62A G80U G89A U96C A117U	0.02
A59U U96A A124U G126A	0.08
U62C C76A U85C A142G	0.02
A64U A67U U96G	0.06
A59G A79G A129U A141G	0.23
A64G U85C U112C A141U	0
U62C A69U U143C	0.04
A59U U62A C128A A138G	0.02
A64U U109C A117U	1
U62A U134C C145U	0.08
C61U U87A U109C	0.04
U62C A64C A92G	0
A59G A77U A78G U115C	0
A59G A79G U81C	0
A59G U73C U132C	0.56
U62A U85C U132C	0.39
A59G A69G A142G	0.18
A64U U87G A92G U112C A136G	0
U62C A94G U119A U134C	0

Variant	self-cleavage
A59U A69G A129G U134C	0
A59G A69U U81A U104C	0
U62C A94G U134C U143C	0.15
U62C U132C A142G	0.11
A64G C68U A94G U143C	0.2
A59G A65U A124G	0.12
C61A A64G A65G C145U	0.08
C63U U85C U109C	0.6
G60C A69G U96C U100A	0
A59G A65G A121G	0
A59G G89U U134A A140G	0.03
A64G U91C U100C	0.42
U62A A69U A107G A117G A138G	0
A64U U108C A136G	0.83
U62C A65U G86A A94G A129U A136U	0.05
U62C A64G A77U	0
A59G U62A A77U A141G	0.01
U62C U115C U130C	0.18
A64G U96A U143C	0.03
U62A A65G A77G U100C U134A	0
U62C U119C A140G	0.08
U62A A79G U102C	0.07
A64G G86A C118U C128U	0.02
C61U A77U U100C	0.02

Variant	self-cleavage
U62A U108C C145G	0
A64G U115C A136U A141G	0.18
U62C A77G U130C	0
U62C U102A U109C A121G A142G	0
A59G A79G U134A	0.03
A64C A69G U102A A124G	0
U62C A141G A142U	0.12
A59G U85A U132C U143A	0.04
A64C U91C U130C	0.28
A59G U87C U96C	0
A59U C66A A77G	0.19
A59G U87C U143A C145G	0
U62C A64U U87A U132C	0.16
U62C C71A A136U A140G	0.02
A59G U96C U132C	0
A59G U81C A129U	0.05
A64U A78G U102C A121G U134C	0.57
U62C C84U A136G	0.05
A64U U85C A138U	0.07
A59G A64G C99U A142G	0.01
C61G A64U U87C C146U	0.07
U62A A77U U85A	0.05
A59G G88A A140C	0
U62A U112A U132C A138G	0

Variant	self-cleavage
U62C A69U A129G	0.02
A64G A77G A129U	0.26
U62C A69G A78G	0
C63A U112C U115A	0.05
A59G A64C U112C	0.26
U62C U96A U130C A136G	0
U62C U100C A138G	0.05
A64U C90G A136U	0.16
G60A U62C A78U U96C U102C	0.14
U62A U81C A124U A129G A136G	0
A64U A77G C113A A129G	0.68
U62A A77G A142G	0.13
A59G U62A U109C A141G	0.07
C63U A121U U130C U134G A140U	0.61
A64U A92G U112G	0.6
G60U G74A A117U	0.01
A64G U73C U130C	0
A59G A65G U119C	0
U62A A77U A94G	0
A59G G83A U109C U130C A136G	0.18
A64G A124G A141G	0.32
G60A A79G G127U	0.03
U62A U87C A124G U132A	0.12
